Data from patent publication US20200179510A1, “LOW DENSITY LIPOPROTEIN RECEPTOR RELATED PROTEIN 5 INHIBITION SUPPRESSES TUMOR FORMATION” (YALE UNIVERSITY, priority 2017, published 2020).

Tests used:
[1] = test system: DKK2 binding to LRP5; test: DKK2-AP binding assay on LRP5-transfected HEK293 cells; settings: HEK293 transfected with LRP5, 5F8 120 nM
Description: The binding assay was performed as previously described (56). In brief, HEK293T cells were transfected with LacZ or LRP5 using Lipofectamine Plus for 24 hours. Cells were washed once with a cold washing buffer (Hanks' buffered salt solution containing 1% bovine serum albumin, 20 mM HEPES, and 0.5% NaN3) and incubated with the washing buffer containing 20% of DKK2-AP conditioned medium on ice for 2 h. The cells were then washed three times with the washing buffer and lysed with 1% Triton X-100 and 20 mM Tris-HCl, pH 7.5. The lysates were heated at 65° C. for 10 min to inactivate endogenous AP and then added with a chemiluminescence AP substrate (Thermo Fisher T1015). The activity was measured by an EnVision plate reader.
To examine whether 5F8 blocks DKK2 binding to LRP5, a binding assay was performed. In this study, HEK293 cells were transfected with LacZ (control plasmid) or LRP5 expression plasmid. The direct binding of DKK2-AP fusion protein to LRP5 overexpressed on the cell surface was measured, both in the presence or absence of 5F8.

[2] = test system: primary mouse NK cells with MC38 or YUMM1.7 cells; test: NK and tumor cell co-culture; type: cell-based; settings: 250 nM, 9 hours
Description: Primary NK cells were isolated from the spleens as described above and cultured in the presence of 50 ng/ml recombinant murine IL-15 for 24 hours. Meanwhile, tumor cells were plated in the 96 well plate for overnight. NK cells were added into the tumor cells at 7:1 radio in the presence of the IgG3 antibody or anti-DKK2 5F8 for 9 hours at 37° C. For testing the effect of DKK2 in co-culture, isolated NK cells were cultured in the presence of 50 ng/ml recombinant murine IL-15 for 24 hours and then cultured in the presence or absence of DKK2 for another 24 hours before the NK cells were added to pre-seeded MC38 cells at 7:1 (NK:MC38) radio. The numbers of live tumor cells were determined by a Guava flow cytometer (EMDmillipore), whereas the cell apoptosis was assessed by flow cytometry using an Annexin V apoptosis detection kit (eBioscience, 88-8007).

[3] = test system: primary mouse NK cells; test: IL-15-cultured primary mouse NK cells (flow cytometry, Western); type: cell-based; settings: 5F8, NK cells alone
Description: Cells in single cell suspension were fixed with 2% PFA (Santa-Cruz sc-281692). After washing with a Flow Cytometry Staining Buffer (eBioscience 00-4222-26), cells were stained with antibodies for cell surface markers for 1 hour on ice in the dark. For staining of intracellular proteins, the cells were washed and resuspended in the Permeabilization Buffer (BD 554723) and stained by antibodies in the Permeabilization Buffer for 1 hour on ice in the dark. The cells were then pelleted and resuspended in the Flow Cytometry Staining Buffer for flow cytometry analysis.
Mouse primary NK and CD8+ T cells were isolated from the spleens by using the NK cell and CD8+ T cell isolation kits according to the manufacturer's instructions (Miltenyi Biotec #130-090-864 and #130-104-075), respectively. Primary NK cells were cultured in RPMI-1640 (Gibco, 11875-093) supplemented with 10% FBS, penicillin (100 U/ml), streptomycin (100 μg/ml), 2-mercaptoethanol (500 μM) and HEPES (10 mM) at 37° C. supplemented with 5% CO2 in the presence of recombinant murine IL-15 (50 ng/ml) for 24 hours before treatment with DKK2, CHIR99021, or WNT3A. CD8+ T cells were cultured in the same culture medium and condition as NK cells, but supplemented with IL-15 (200 ng/ml) and IL-15 Rα (1 μg/ml recombinant Mouse IL-15 receptor alpha Fc chimera Protein from R&D) for 96 hours before DKK2 treatment. […]

[4] = test system: MC38 tumors; test: MC38 graft in mice receiving LRP5-/- or WT bone marrow; type: in vivo
Description: ApcMin/+(C57BL/6J-ApcMin/J) and MX1Cre [B6.Cg-Tg(Mx 1-cre)1Cgn/J] mice were acquired from Jackson Laboratory. Wildtype C57BL/6 mice were purchased from Envigo (Harlan). The LoxP-floxed Lrp5 (Lrp5f/f) and Lrp6 (Lrp6f/f) mice were obtain from Bart Williams (54). The Lrp5f/f and Lrp6f/f mice were backcrossed to C57/BL6 for more than 7 generations before being intercrossed with MX1Cre. LRP5 and LRP6 gene disruption was induced by intraperitoneal injection of the Lrp5fl/flMX1Cre mice with 40 μl poly-I:C (10 mg/mL) every other day for 4 treatments. The mice were used for NK cell isolation three weeks after the poly-I:C treatment. For adoptive bone marrow transfer, bone marrows from the Lrp5fl/flMX1Cre mice were transferred to lethally irradiated C57/BL6 mice (8 weeks old) via retro-orbital injection. After recovery (8 weeks), the mice were treated with poly-I:C and used in experiments three weeks after poly-I:C treatment.
To further test the importance of LRP5 in tumor progression and the anti-tumor effect of DKK2 blockade, an adoptive cell transfer model was employed. Specifically, bone marrows (BMs) from the Lrp5fl/flMx1Cre mice were transferred into lethally irradiated WT C57BL mice. After recovery and Cre expression induction, the mice were grafted with the MC38 cells. The lack of LRP5 in hematopoietic cells led to a significant impediment in the progression of the grafted tumors (FIG. 6C).

[5] = test system: MC38 cells or tumors; test: Microarray gene expression analysis of MC38 cells or tumors; design: species or system mouse; settings: 5F8-treated vs isotype IgG-treated

B1: 5F8: Mouse monoclonal antibody to DKK2, raised against a synthetic peptide of human DKK2 (SEQ ID NO: 21); chains SEQ ID NOs: 22, 23 (antibody, V domains shown)
VH: GAELVRPGASVKLSCKASGYSFTNYWMNWVKQRPGQGLEWIGMIHPSDSETRLNQKFKDKATLTVDKSSSTAYMQLSSPTSEDSAVYYCAREGRLGLRSYAMDYWGQGTSVTVSS
VL: PSSLAMSVGQKVTMSCKSSQSLLNSSNQKNYLAWYQQKPGQSPKLLVYFASTRESGVPDRFVGSGSGTDFTLTITSVQAEDLADYFCQQHYITPLTFGAGTKLE
binding of DKK2-AP fusion protein to LRP5 on the cell surface [1]: blocked DKK2 binding to LRP5 | granzyme B in NK cells co-cultured with YUMM1.7 cells [2]: gzmb is upregulated in NK cells co-cultured with YUMM1.7 cells | granzyme B expression in NK cells co-cultured with MC38 cells ([2]; NK:tumor 7:1): a marked increase in granzyme B expression | tumor cell viability, NK co-culture with MC38 cells ([2]; NK:tumor 7:1): decreases in tumor cell viability | tumor cell viability in co-cultures (YUMM1.7 or MC38) ([2]; vs IgG): a decrease in tumor cell viability | granzyme B expression in NK cells cultured alone [3]: little effects on granzyme B expression | tumor progression in mice with hematopoietic LRP5-deficiency ([4]; LRP5-/- bone marrow, 5F8 10 mg/kg i.p. Day 12, 17, 20): no significant effects on the tumor progression | tumor progression in mice that received WT bone marrow ([4]; WT BM, 5F8 10 mg/kg i.p. Day 12, 17, 20): retained its tumor suppressive effect | cytotoxic immune cell activation under hematopoietic LRP5 deficiency ([4]; flow cytometry of tumor infiltrated leukocytes): abrogated 5F8's effects on cytotoxic immune cell activation | expression of IL-2, IL-15, MHC-I haplotypes, NKG2D ligands, Fas or TRAILR1/2 [5]: did show significant alteration
